{
  "source": "PubChem BioAssay AID686979",
  "about": "(National Center for Advancing Translational Sciences (NCATS), 2013)",
  "note": "“And” between values parts separate entries of the source, which are not always exact repeats. Identical values can stand only once. Among all 420,000 compounds or so, about 50,000 (12%) were called active. Inconclusive means that the source gave no clear call. Such entries were picked first, then a sample of the others. Calls come from the whole dose curve; as a rule, active = well fitted inhibition curve with a large enough effect; inconclusive = small, poorly fitted or top-dose-only effect; inactive = flat fitted curve, though single readings scatter. Potencies beside an inconclusive call are fits to weak or partial responses and may not hold up. % is set by controls: 0 for no effect and ±100 for the full control effect; potency is the fitted concentration of half-maximal effect; tags give direction and shape of the fitted curve.",
  "data": [
    {"experiment": "qHTS for Inhibitors of human tyrosyl-DNA phosphodiesterase 1 (TDP1): qHTS in cells in presence of CPT; note: nearly all actives have a fitted effect of over 55% in size", "settings": "chicken DT40 Tdp1-/-;hTDP1 cells + 20 nM CPT, ATP luminescence, 48 h; activity change, negative = growth inhibition: at 46.2 µM (top of the series) unless noted", "procedure,_shortened": "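Cell growth measured by CellTiter-Glo luminescence after a minimum 48 h, 37 C compound exposure with 20 nM CPT in Tdp1-knockout DT40 cells stably expressing hTDP1, seeded 400/well; qHTS titration format.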", "values": [
      {"molecule": "COc1ccc(-n2c(COc3cccc4ccccc34)nnc2SCC#N)cc1", "Potency": "inconclusive: 18.4 µM [inhibitor, single point]"},
      {"molecule": "CCOC(=O)N1CCC(NC(=O)c2cnn(-c3ccccc3)c2C2CCN(C(=O)OC(C)(C)C)CC2)CC1", "activity change, negative = growth inhibition": "inactive: -9.81%"},
      {"molecule": "O=C(CN1C(=O)/C(=C/c2ccco2)SC1=S)Nc1ccc(O)c(C(=O)O)c1", "activity change, negative = growth inhibition": "inactive: 4%"},
      {"molecule": "Cn1cc(-c2coc3c(C(=O)NCc4cccnc4)cccc23)cn1", "Potency": "inconclusive: 20.6 µM [inhibitor, single point]"},
      {"molecule": "C=Cc1ccc(CC2(C)C(=O)Nc3ccc(Cl)cc32)cc1", "note": "(stereo not drawn)", "activity change, negative = growth inhibition": "inactive: -12.2%"},
      {"molecule": "Cc1noc(C)c1-c1nc(Nc2ccccc2)c2ccccc2n1", "activity change, negative = growth inhibition": "inactive: 8.15%"},
      {"molecule": "COC(=O)c1sccc1S(=O)(=O)N(CC(=O)Nc1cc(C)cc(C)c1)c1ccc(Cl)cc1", "Potency": "inconclusive: 18.4 µM [inhibitor, single point]"},
      {"molecule": "COc1ccc(-n2c(SCC(=O)NCc3ccccc3)nc3ccsc3c2=O)cc1", "Potency": "inconclusive: 16.4 µM [inhibitor, single point]"},
      {"molecule": "O=C(Nc1cccc(Cl)c1N1CCOCC1)c1ccc(Br)o1", "Potency": "active: 10.3 µM"},
      {"molecule": "CCCOc1ccc(F)cc1-c1cc(C(=O)Nc2ccc(OC)c(OC)c2)[nH]n1", "Potency": "active: 20.6 µM"},
      {"molecule": "CCc1c(C)c2ccc(OC3CCCCC3=O)cc2oc1=O", "note": "(stereo not drawn)", "activity change, negative = growth inhibition": "inactive: -10.3%"},
      {"molecule": "CCC(C(=O)N/N=C(\\C)c1cccnc1)c1ccccc1", "note": "(stereo not drawn)", "activity change, negative = growth inhibition": "inactive: -0.546%"},
      {"molecule": "O=C(NCCc1ccccn1)c1c(-c2ccsc2)sc2ccccc12", "Potency": "inconclusive: 29.1 µM [inhibitor, single point]"},
      {"molecule": "Cc1c(C(=O)NCC2COCCO2)cnn1-c1ncc2c(n1)-c1ccccc1CC2", "note": "(stereo not drawn)", "Potency": "inconclusive: 25.9 µM [inhibitor, single point]"},
      {"molecule": "CC(=O)Nc1ccc(S(=O)(=O)N(C)c2ccc(OCCOc3cccc(C)c3)cc2)cc1", "Potency": "inconclusive: 25.9 µM [inhibitor, single point]"},
      {"molecule": "COc1ccc(CNC(=O)CN2C(=O)COc3ccc(S(=O)(=O)N4CCCCCC4)cc32)cc1", "Potency": "inconclusive: 29.1 µM [inhibitor, single point]"},
      {"molecule": "COc1ccccc1Cn1c(C)c(C(=O)NCc2ccco2)sc1=O", "Potency": "inconclusive: 29.1 µM [inhibitor, single point]"},
      {"molecule": "CCn1cc(C(=O)NCC(OC)OC)c(=O)c2cc(S(=O)(=O)N(C)C3CCCCC3)ccc21", "Potency": "inconclusive: 9.2 µM [inhibitor, partial curve]"},
      {"molecule": "CCOC(=O)N1CCN(C(=O)C[C@@H]2C[C@@]3(C(=O)OC)CC(C)(C)CC=C3N(Cc3ccccc3)C2=O)CC1", "Potency": "inconclusive: 29.1 µM [inhibitor, single point]"},
      {"molecule": "CC(C)COC(=O)N(C)C[C@H]1OCc2cnnn2CCCC(=O)N([C@H](C)CO)C[C@@H]1C", "activity change, negative = growth inhibition": "inactive: -19.8%"},
      {"molecule": "C=C(C)C1CC=C(C)/C(=N/NC(=O)COc2ccc(Cl)cc2)C1", "note": "(stereo not drawn)", "Potency": "inconclusive: 25.9 µM [inhibitor, single point]"},
      {"molecule": "O=C(Nc1ccc2c(c1)OCCO2)C(C1CC1)n1c(=O)c(-c2ccco2)nc2ccccc21", "note": "(stereo not drawn)", "activity change, negative = growth inhibition": "inactive: 0.567%"},
      {"molecule": "CCCCc1ccc(NC(=S)NCc2cccnc2)cc1", "Potency": "inconclusive: 29.1 µM [inhibitor, single point]"},
      {"molecule": "CCc1c(C)sc(NC(=O)Cc2ccccc2C)c1C(=O)N1CCOCC1", "activity change, negative = growth inhibition": "inactive: 0.643%"},
      {"molecule": "COc1ccccc1N1CCN(CC(=O)Nc2ccc(S(=O)(=O)N3CCCCCC3)cc2)CC1", "Potency": "inconclusive: 18.4 µM [inhibitor, single point]"},
      {"molecule": "Cc1ccc(C2Nc3ccccc3-n3c(-c4ccccc4)c4c(=O)n(C)c(=O)n(C)c4c32)cc1", "note": "(stereo not drawn)", "Potency": "inconclusive: 29.1 µM [inhibitor, single point]"},
      {"molecule": "COc1ccc(NC(=O)c2nn(C)c3c2CSc2ccc(C)cc2-3)cc1OC", "Potency": "inconclusive: 11.6 µM [inhibitor, single point]"},
      {"molecule": "CCN1C(=O)/C(=C\\N2CCN(C)CC2)SC1=S", "activity change, negative = growth inhibition": "inactive: -29.8%"},
      {"molecule": "COc1ccc(C2(C#N)CCC(C(=O)O)CC2)cc1OC1CCCC1", "note": "(stereo not drawn)", "Potency": "inconclusive: 18.8 µM [inhibitor, single point]"},
      {"molecule": "O=C(c1ccc(C#Cc2ccccc2)o1)N1CCN(c2ccccn2)CC1", "Potency": "inconclusive: 29.1 µM [inhibitor, single point]"},
      {"molecule": "Cc1cc2ccccc2n1CCNC(=O)Cc1cccc2ccccc12", "Potency": "inconclusive: 20.6 µM [inhibitor, single point]"},
      {"molecule": "CCOc1ccc(NC(=O)c2cc(=O)[nH]c3ccccc23)cc1", "Potency": "inconclusive: 7.31 µM [inhibitor, partial curve]"},
      {"molecule": "COc1cccc(-c2nc(N(C)Cc3ccco3)c3ccccc3n2)c1", "Potency": "inconclusive: 29.1 µM [inhibitor, single point]"},
      {"molecule": "O=S(=O)(c1nccs1)N1CCN(c2nc(-c3cccs3)nc3ccccc23)CC1", "Potency": "inconclusive: 35.5 µM [inhibitor, single point]"},
      {"molecule": "COc1cccc(CNc2nc3cc(-c4csc5ccccc45)sc3c(=O)n2C)c1", "Potency": "inconclusive: 18.4 µM [inhibitor, single point]"},
      {"molecule": "CC(/C=N/NC(=O)CSc1nc2ccccc2n1C)=C\\c1ccco1", "Potency": "inconclusive: 20.6 µM [inhibitor, single point]"},
      {"molecule": "CCOc1ccc(NC(=O)c2cc(Cl)nc3ccccc23)cc1", "Potency": "inconclusive: 18.4 µM [inhibitor, single point]"},
      {"molecule": "CCOc1ccc2nc(SCC#N)c(C#N)cc2c1", "Potency": "inconclusive: 20.6 µM [inhibitor, partial curve]"},
      {"molecule": "COc1ccc(C(c2nnnn2C2CCCCC2)N2CCN(C/C=C/c3ccccc3)CC2)cc1", "note": "(stereo not drawn)", "Potency": "active: 16.4 µM"},
      {"molecule": "c1ccc2oc(SCc3cn4ccsc4n3)nc2c1", "Potency": "inconclusive: 11.2 µM [inhibitor, single point]"},
      {"molecule": "O=C(Cn1c(=S)[nH]c2ccccc2c1=O)N1CCN(c2ccc(F)cc2)CC1", "activity change, negative = growth inhibition": "inactive: -29.8%"},
      {"molecule": "CCN(c1cccc(C)c1)S(=O)(=O)c1ccc2c(c1)CCCN2C(C)=O", "activity change, negative = growth inhibition": "inactive: -27.7%"},
      {"molecule": "COCCCNC(=O)c1ccc(Cn2c(=O)c3ccccc3n(Cc3ccc(C)cc3)c2=O)cc1", "Potency": "inconclusive: 23.1 µM [inhibitor, single point] and inconclusive: 18.4 µM [inhibitor, single point]"},
      {"molecule": "COc1ccc(NS(=O)(=O)c2cc(-c3nnnn3C)ccc2OC)cc1", "activity change, negative = growth inhibition": "inactive: -25.9%"},
      {"molecule": "CC1(C)Cc2nc3sc4c(NCCO)ncnc4c3cc2CS1", "Potency": "inconclusive: 25.9 µM [inhibitor, single point]"},
      {"molecule": "S=C(NCCC(c1ccccc1)c1ccccc1)Nc1cccc(Cl)c1", "Potency": "inconclusive: 18.4 µM [inhibitor, single point]"},
      {"molecule": "CCn1cc(C(=O)NCCc2ccc(Cl)cc2)c(=O)c2cc(S(=O)(=O)N(C)C)ccc21", "activity change, negative = growth inhibition": "inactive: 3.13%"},
      {"molecule": "CCOC(=O)CNC(=O)CSc1nc2c(C)cccc2cc1CC", "Potency": "inconclusive: 29.1 µM [inhibitor, single point]"},
      {"molecule": "CCOC(=O)c1ccc(NC(=O)CC2Nc3cc(C)c(C)cc3NC2=O)cc1", "note": "(stereo not drawn)", "Potency": "inconclusive: 29.1 µM [inhibitor, single point]"},
      {"molecule": "Cc1ccc(C(=O)OCC(=O)NC(=O)c2cccn2C)cc1", "Potency": "inconclusive: 6.51 µM [inhibitor, single point]"},
      {"molecule": "COCCOC(=O)Cn1nnc2sc(-c3ccccc3)cc2c1=O", "activity change, negative = growth inhibition": "inactive: -24%"},
      {"molecule": "COc1ccccc1N(CC(=O)NC1CCCC1)S(=O)(=O)c1cccc(C(F)(F)F)c1", "Potency": "inconclusive: 25.9 µM [inhibitor, single point]"},
      {"molecule": "Cc1ccc(S(=O)(=O)CCC(=O)NCCN2C(=O)S/C(=C\\c3ccccc3)C2=O)cc1", "Potency": "inconclusive: 25.9 µM [inhibitor, single point]"},
      {"molecule": "CCN(CC)S(=O)(=O)c1csc(C(=O)NC2CCCCC2)c1", "activity change, negative = growth inhibition": "inactive: -22.6%"},
      {"molecule": "O=C(NCc1ccccc1)C(C1CC1)n1c(Cc2cc(F)cc(F)c2)nc2ccccc21", "note": "(stereo not drawn)", "Potency": "inconclusive: 18.4 µM [inhibitor, single point]"},
      {"molecule": "O=C(O)CSCC(=O)NCc1csc2ccc(Cl)cc12", "activity change, negative = growth inhibition": "inactive: -4.28%"},
      {"molecule": "COc1cccc(NC(=S)N2CCC(c3ccc(C)cc3)C2)c1", "note": "(stereo not drawn)", "Potency": "active: 11.6 µM"},
      {"molecule": "Cc1ccc(NC(=O)CN2CCN(S(=O)(=O)c3ccc(F)cc3)CC2)cc1C", "activity change, negative = growth inhibition": "inconclusive: -31.6% [inhibitor]"},
      {"molecule": "COc1cccc(-c2ccc3c(c2)N(Cc2cccc(F)c2)C(=O)C(C)S3)c1", "note": "(stereo not drawn)", "Potency": "inconclusive: 29.1 µM [inhibitor, single point]"},
      {"molecule": "CC(NS(=O)(=O)c1cccc(C(=O)N(C)Cc2ccc(N3CCOCC3)cc2)c1)c1ccccc1", "note": "(stereo not drawn)", "Potency": "inconclusive: 14.6 µM [inhibitor, partial curve, poor fit]"},
      {"molecule": "CCCCNC(=O)C1CCN(S(=O)(=O)c2ccc3c(c2)CC(C)N3C(=O)C2CC2)CC1", "note": "(stereo not drawn)", "Potency": "inconclusive: 23.1 µM [inhibitor, single point]"},
      {"molecule": "CCCCn1nnnc1C(c1cc2ccccc2o1)N1CCOCC1", "note": "(stereo not drawn)", "activity change, negative = growth inhibition": "inactive: 2.42%"},
      {"molecule": "Cc1nn(S(=O)(=O)c2ccc(C(C)C)cc2)c(C)c1S(=O)(=O)N1CCCCC1", "activity change, negative = growth inhibition": "inactive: -9.14%"},
      {"molecule": "Cc1ccc(NC(=O)CN2CC(C)SC2=NC2CCCCC2)cc1", "note": "(stereo not drawn)", "Potency": "inconclusive: 16.4 µM [inhibitor, single point] and inconclusive: 32.6 µM [inhibitor, single point]"},
      {"molecule": "CC(NC(=O)C12CC3(C)CC(C)(CC(C)(C3)C1)C2)C(=O)O", "note": "(stereo not drawn)", "activity change, negative = growth inhibition": "inactive: 4.8%"},
      {"molecule": "Cc1nc2sc(C(c3ccco3)N3CCN(C(c4ccccc4)c4ccccc4)CC3)c(O)n2n1", "note": "(stereo not drawn)", "Potency": "inconclusive: 23.1 µM [inhibitor, single point]"},
      {"molecule": "COc1ccc(Cc2nnc(SCC(=O)Nc3cc(Cl)ccc3OC)[nH]c2=O)cc1", "Potency": "inconclusive: 29.1 µM [inhibitor, single point]"},
      {"molecule": "C[C@H]1CN([C@@H](C)CO)C(=O)CCCn2nncc2CO[C@H]1CN(C)S(=O)(=O)c1ccc(-n2cccn2)cc1", "activity change, negative = growth inhibition": "inactive: 12.3%"}
    ]}
  ]
}
